# Results published in PubChem BioAssay AID1508642 (National Center for Advancing Translational Sciences (NCATS), 2021).
# Screen size: about 43,000 compounds; about 200 (0.47%) were called active. About 12% were inconclusive and are not listed. Calls follow the shape of the dose curve; as a rule, active = well fitted cell-killing curve with a large enough effect; inconclusive = small, poorly fitted or top-dose-only effect, or effect the other way; inactive = flat fitted curve, though single readings scatter. Some of the results follow.
# Assay: Cell viability qHTS assay in S16 Pmp22-F2sN cells; also: nearly all actives have a fitted effect of over 65% in size
# Conditions: S16 Pmp22-F2sN Schwann cells (luciferase reporters placed in the Pmp22 gene) viability, CellTiter-Glo, 24 h; series mostly up to 57.5 µM; activity change, negative = cytotoxicity: at the top concentration
# Outline: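 Luminescence from CellTiter-Glo, read by CCD camera after a 15 min room-temperature incubation, served as the viability signal. Reporter Schwann cells (S16 Pmp22-F2sN) had been treated with pin-transferred compounds for 24 h at 37C.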
# % is scaled to controls: 0 for no effect and ±100 for the full control effect.
row,SMILES,"activity change, negative = cytotoxicity"
1,O=C(CSc1nc2c([nH]c3ccccc32)c(=O)n1-c1ccc(Cl)cc1)N1CCc2ccccc21,inactive: 4.44%
2,CSc1cccc(NC(=O)c2cnn(-c3ccc(F)cc3)c2-n2cccc2)c1,inactive: 5.55%
3,Cc1ccc(-c2nc3c(c(SCc4ccc(Br)cc4)n2)Cc2c(CO)cnc(C)c2O3)cc1,inactive: 6.99%
4,COc1ccc(CCNC(=O)CCc2c(C)c3cc4c(C)c(C)oc4cc3oc2=O)cc1OC,inactive: -1.12%
5,O=C(Cn1ncn2c(cc3sccc32)c1=O)NCCc1ccccc1,inactive: -4.28%
6,Cc1ccc2c(=O)cc(C(=O)Nc3ccc(S(=O)(=O)N(C)c4ccccc4)cc3)oc2c1C,inactive: -5.29%
7,CC(=O)Nc1ccc(S(=O)(=O)NC2(C(F)(F)F)C(=O)Nc3c2c(=O)[nH]c(=O)n3-c2cccc(Cl)c2)cc1 (configuration not stated),inactive: 3.32%
8,CCOC(=O)c1cnc2cc(C(F)(F)F)ccc2c1Nc1ccc(F)cc1F,inactive: 16.8%
9,CCC(=O)N1CCc2cc(CNS(=O)(=O)c3cc(OC)ccc3OC)ccc21,inactive: 2.19%
10,CCc1nc2ccc(C(=O)N3CCN(c4cc(Cl)ccc4C)CC3)cc2nc1CC,inactive: -15.7%
11,Cc1ccc(S(=O)(=O)NCC2CCC(C(=O)NCCc3ccccc3)CC2)cc1 (configuration not stated),inactive: 9.34%
12,Cc1ccc(CSc2nc3cccnc3n2Cc2ccc(C(=O)NCc3ccco3)cc2)cc1,inactive: 2.28%
13,Oc1ccc(Cl)cc1C1=Nc2ccccc2N=C(c2ccccc2)C1,inactive: -1.07%
14,O=C(c1ccc(F)cc1)c1cn(Cc2ccccc2F)c2cc3c(cc2c1=O)OCCO3,inactive: -4.43%
15,Cc1cccc(-c2nc(CN3CCCC(C(=O)N4CCN(c5cc(Cl)ccc5C)CC4)C3)c(C)o2)c1 (configuration not stated),inactive: -2.84%
16,Cc1cccc(CNC(=O)Cn2c(-c3cccs3)cc3ccccc32)c1,inactive: -0.624%
17,Cc1cccc(OCC(=O)Nc2ccccc2C(=O)OCc2cc(=O)n3ccsc3n2)c1,inactive: -6.77%
18,Cn1ncc2c(Nc3cc(C(F)(F)F)ccc3Cl)ncnc21,inactive: -3.44%
19,COc1cccc(NC(=O)CN2C(=O)c3cccc4cccc2c34)c1,inactive: -2.65%
20,COC(=O)CSc1ncc2c(n1)-c1ccccc1N(Cc1ccc(Cl)cc1)S2(=O)=O,inactive: -0.759%
21,COc1ccc(CCn2c3c(c(=O)[nH]c2=O)C(NC(=O)c2ccc(Cl)cc2)(C(F)(F)F)C(=O)N3)cc1OC (configuration not stated),inactive: 10.8%
22,COc1ccc(CNc2ncnc3c2nc2n3CCCC2)cc1,inactive: -6.68%
23,CCc1ccc(-n2nnc(-c3nc(-c4cccs4)no3)c2N)cc1,inactive: 6.86%
24,CC1CCN(C(=O)CSc2n[nH]c(-c3ccc(F)cc3)n2)CC1,inactive: 1.31%

row,SMILES,"activity change, negative = cytotoxicity"
1,CC(C)OC(=O)c1ccc(Cn2nnc3sc4c(c3c2=O)CCCC4)cc1,inactive: -4.46%
2,COc1ccc2c(c1)c1c(c(=O)n(-c3ccccc3C)c(=O)n1Cc1cccc(C(F)(F)F)c1)n2C,inactive: -1.4%
3,CCCN(c1c(C)n(C)n(-c2ccccc2)c1=O)S(=O)(=O)c1ccc(C)cc1,inactive: -7.28%
4,CC(NC(=O)c1ccc2c(c1)N(Cc1ccc(Cl)cc1)C(=O)CS2)c1ccccc1 (configuration not stated),inactive: 3.45%
5,CCN(c1cccc(C)c1)S(=O)(=O)c1cc(Br)cc2c1N(C(C)=O)C(C)C2 (configuration not stated),inactive: 16.6%
6,CCOc1ccc(CNC(=O)c2ccc3c(c2)c(C)c(C)n3Cc2ccccc2)cc1OC,inactive: -0.755%
7,CCOc1ccc(NC(=O)C(Cc2ccccc2)NS(=O)(=O)c2ccc3c(c2)oc(=O)n3C)cc1 (configuration not stated),inactive: -9.64%
8,Cc1c(Cl)cccc1-c1ccc(CNCCSc2nnnn2-c2ccccc2)o1,inactive: 5.96%
9,COc1ccccc1C(=O)Nc1ccc2nc(SCC(=O)N(C)c3ccccc3)sc2c1,inactive: 0.295%
10,CCN(CC)S(=O)(=O)c1ccc(NC(=O)CN(c2ccccc2)S(=O)(=O)N(C)C)cc1,inactive: 3.11%
11,CCOc1ccc(NC(=O)c2c(Nc3ccccc3C)sc(C(=O)c3ccccc3)c2N)cc1,inactive: -12.9%
12,O=C(CN1C(=O)C2(SCC(=O)N2c2cccc(Cl)c2)c2ccccc21)NCCc1ccccc1 (configuration not stated),inactive: -19.8%
13,Cc1ccc(-n2ncc(C(=O)N3CCN(c4cc(Cl)ccc4C)CC3)c2C2CCN(C(=O)OC(C)(C)C)CC2)cc1,inactive: 1.79%
14,COc1ccc(CCNC(=O)c2ccc3c(c2)N(Cc2ccccc2)C(=O)c2ccccc2S3=O)cc1OC (configuration not stated),inactive: -13%
15,COC(=O)c1ccc(Cl)cc1NC(=O)Nc1nnc(N2CCCC2)s1,inactive: 5.92%
16,CCOC(=O)C(CC)n1nnc2sc(-c3ccccc3)cc2c1=O (configuration not stated),inactive: -15.7%
17,O=C(NCCS(=O)(=O)N1CCN(c2ccc(F)cc2)CC1)C(c1ccccc1)c1ccccc1,inactive: -2.14%
18,CC(=O)c1cccc(NC(=O)CSc2nnc3ccc(-c4ccc(Br)cc4)nn23)c1,inactive: 8.49%
19,COc1ccc(CN2C(=O)C(NC(=O)c3cccc(C)c3)(C(F)(F)F)N=C2c2ccccc2)cc1 (configuration not stated),inactive: 1.28%
20,CCOc1ccc(NC(=O)CSc2cn(CCNC(=O)c3ccccc3F)c3ccccc23)cc1,inactive: 23%
21,Cn1c2ccccc2c2cnn(CC(=O)NCCCN3CCCCC3)c(=O)c21,inactive: -0.0522%
22,CCc1ccccc1NC(=O)CSc1nncn2c1cc1oc(C)cc12,inactive: 2.76%
23,Cc1ccc(CNC(=O)CSc2nc3c(sc4ccccc43)c(=O)n2CCCOC(C)C)cc1,inactive: -3.42%
